# Assay results from the supplement of paper PMC8728848.
# This is one part of the list.
# B1: Epa9 (Candida glabrata), CAGL0A01386g (protein)
# chain: MGSSHHHHHHSSGLVPRGSHMDITPFAHYPRPEGCSSPPNAVSVGLHMDLYNYPYLYVKNPRTGFTNDTDSDADGETDGDSAGGIEGRAGQCWNPEYQDPNFPRYGYKKYGSFGSSDHVNGKISWDHNEFKEGCKPIMARLPTAYNYPAKITFSNFTMVLSGYFKPKSTGLYKFEIHADDFILFNFGSKNAFECCNREESIDNFGPYVAYAMWPNEADQELEVYLFEDSYYPIRLFYNNRDYHSKFMVGFYPPNTEEITYDFDGYLYMLDDTGNECKDSIRYKTVCDD
# Columns and labels:
# Assay in all cases: glycan array binding signal (z-score within array); higher = stronger binding
# Settings in all cases: glycan notation: IUPAC condensed, linker removed
# [1] = molecular target: Gal(a1-3)GalNAc
# Outline: (§1)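 Arrays were curated from the Consortium for Functional Glycomics database, 3228 in total, and kept only where the protein sequence was available. Binding is expressed as a within-array Z-score. This score was averaged across arrays of the same protein sequence at different concentrations or buffers and across linkers, and negative values can be read as non-binding.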
# [2] = molecular target: Gal(a1-3)[Gal(a1-4)]Gal(b1-4)GlcNAc
# Outline: as §1
# [3] = molecular target: Gal(a1-4)Gal(b1-3)GlcNAc(b1-2)Man(a1-3)[Gal(a1-4)Gal(b1-3)GlcNAc(b1-2)Man(a1-6)]Man(b1-4)GlcNAc(b1-4)GlcNAc
# Outline: as §1
# [4] = molecular target: Gal(a1-4)Gal(b1-4)Glc
# Outline: as §1
# [5] = molecular target: Gal(a1-4)Gal(b1-4)GlcNAc
# Outline: as §1
# [6] = molecular target: Gal(a1-4)Gal(b1-4)GlcNAc(b1-2)Man(a1-3)[Gal(a1-4)Gal(b1-4)GlcNAc(b1-2)Man(a1-6)]Man(b1-4)GlcNAc(b1-4)GlcNAc
# Outline: as §1
# [7] = molecular target: Gal(a1-4)Gal(b1-4)GlcNAc(b1-3)Gal(b1-4)Glc
# Outline: as §1
# [8] = molecular target: Gal(a1-4)GlcNAc
# Outline: as §1
# [9] = molecular target: Gal(a1-6)Glc
# Outline: as §1
# [10] = molecular target: Gal(b1-2)Gal
# Outline: as §1
# [11] = molecular target: Gal(b1-3)Gal
# Outline: as §1
# [12] = molecular target: Gal(b1-3)Gal(b1-4)GlcNAc
# Outline: as §1
# [13] = molecular target: Gal(b1-3)GalNAc
# Outline: as §1
# [14] = molecular target: Gal(b1-3)GalNAc(a1-3)[Fuc(a1-2)]Gal(b1-4)Glc
# Outline: as §1
# [15] = molecular target: Gal(b1-3)GalNAc(a1-3)[Fuc(a1-2)]Gal(b1-4)GlcNAc
# Outline: as §1
# [16] = molecular target: Gal(b1-3)GalNAc(b1-3)Gal
# Outline: as §1
# [17] = molecular target: Gal(b1-3)GalNAc(b1-3)Gal(a1-4)Gal(b1-4)Glc
# Outline: as §1
# [18] = molecular target: Gal(b1-3)GalNAc(b1-4)Gal(b1-4)Glc
# Outline: as §1
# [19] = molecular target: Gal(b1-3)GalNAc(b1-4)[Neu5Ac(a2-3)]Gal(b1-4)Glc
# Outline: as §1
# [20] = molecular target: Gal(b1-3)GlcNAc
# Outline: as §1
# [21] = molecular target: Gal(b1-3)GlcNAc(a1-3)Gal(b1-4)GlcNAc
# Outline: as §1
# [22] = molecular target: Gal(b1-3)GlcNAc(a1-6)Gal(b1-4)GlcNAc
# Outline: as §1
# [23] = molecular target: Gal(b1-3)GlcNAc(b1-2)Man
# Outline: as §1
# [24] = molecular target: Gal(b1-3)GlcNAc(b1-2)Man(a1-3)[Gal(b1-3)GlcNAc(b1-2)Man(a1-6)]Man(b1-4)GlcNAc(b1-4)GlcNAc
# Outline: as §1
# [25] = molecular target: Gal(b1-3)GlcNAc(b1-2)Man(a1-3)[Gal(b1-3)GlcNAc(b1-2)Man(a1-6)]Man(b1-4)GlcNAc(b1-4)[Fuc(a1-6)]GlcNAc
# Outline: as §1
# [26] = molecular target: Gal(b1-3)GlcNAc(b1-2)Man(a1-3)[GlcNAc(b1-4)][Gal(b1-3)GlcNAc(b1-2)Man(a1-6)]Man(b1-4)GlcNAc(b1-4)GlcNAc
# Outline: as §1
# [27] = molecular target: Gal(b1-3)GlcNAc(b1-2)[Gal(b1-3)GlcNAc(b1-6)]Man(a1-6)[Gal(b1-3)GlcNAc(b1-2)Man(a1-3)]Man(b1-4)GlcNAc(b1-4)GlcNAc
# Outline: as §1
# [28] = molecular target: Gal(b1-3)GlcNAc(b1-3)Gal(b1-3)GlcNAc
# Outline: as §1
# [29] = molecular target: Gal(b1-3)GlcNAc(b1-3)Gal(b1-4)Glc
# Outline: as §1
# [30] = molecular target: Gal(b1-3)GlcNAc(b1-3)Gal(b1-4)GlcNAc
# Outline: as §1
# [31] = molecular target: Gal(b1-3)GlcNAc(b1-3)Gal(b1-4)GlcNAc(b1-2)Man(a1-3)[Gal(b1-3)GlcNAc(b1-3)Gal(b1-4)GlcNAc(b1-2)Man(a1-6)]Man(b1-4)GlcNAc(b1-4)GlcNAc
# Outline: as §1
# [32] = molecular target: Gal(b1-3)GlcNAc(b1-3)Gal(b1-4)GlcNAc(b1-2)[Gal(b1-3)GlcNAc(b1-3)Gal(b1-4)GlcNAc(b1-6)]Man(a1-6)[Gal(b1-3)GlcNAc(b1-3)Gal(b1-4)GlcNAc(b1-2)Man(a1-3)]Man(b1-4)GlcNAc(b1-4)[Fuc(a1-6)]GlcNAc
# Outline: as §1
# [33] = molecular target: Gal(b1-3)GlcNAc(b1-3)Gal(b1-4)GlcNAc(b1-3)Gal(b1-4)GlcNAc(b1-2)[Gal(b1-3)GlcNAc(b1-3)Gal(b1-4)GlcNAc(b1-3)Gal(b1-4)GlcNAc(b1-6)]Man(a1-6)[Gal(b1-3)GlcNAc(b1-3)Gal(b1-4)GlcNAc(b1-3)Gal(b1-4)GlcNAc(b1-2)Man(a1-3)]Man(b1-4)GlcNAc(b1-4)[Fuc(a1-6)]GlcNAc
# Outline: as §1
# [34] = molecular target: Gal(b1-3)GlcNAc(b1-3)Gal(b1-4)GlcNAc(b1-6)[Gal(b1-3)GlcNAc(b1-3)]Gal(b1-4)Glc
# Outline: as §1
# [35] = molecular target: Gal(b1-3)GlcNAc(b1-3)Gal(b1-4)[Fuc(a1-3)]GlcNAc
# Outline: as §1
# [36] = molecular target: Gal(b1-3)GlcNAc(b1-3)Gal(b1-4)[Fuc(a1-3)]GlcNAc(b1-6)[Gal(b1-3)GlcNAc(b1-3)]Gal(b1-4)Glc
# Outline: as §1
# [37] = molecular target: Gal(b1-3)GlcNAc(b1-3)GalNAc
# Outline: as §1
# [38] = molecular target: Gal(b1-3)GlcNAc(b1-6)Gal(b1-4)GlcNAc
# Outline: as §1
binder,measurement,setting,value
B1,glycan array binding signal (z-score),[1],0.221
same,glycan array binding signal (z-score),[2],0.117
same,glycan array binding signal (z-score),[3],4.05
same,glycan array binding signal (z-score),[4],0.815
same,glycan array binding signal (z-score),[5],1.71
same,glycan array binding signal (z-score),[6],3.16
same,glycan array binding signal (z-score),[7],1.88
same,glycan array binding signal (z-score),[8],0.434
same,glycan array binding signal (z-score),[9],0.582
same,glycan array binding signal (z-score),[10],0.38
same,glycan array binding signal (z-score),[11],0.707
same,glycan array binding signal (z-score),[12],1.31
same,glycan array binding signal (z-score),[13],1.06
same,glycan array binding signal (z-score),[14],1.58
same,glycan array binding signal (z-score),[15],2.63
same,glycan array binding signal (z-score),[16],2.25
same,glycan array binding signal (z-score),[17],1.98
same,glycan array binding signal (z-score),[18],4.13
same,glycan array binding signal (z-score),[19],1.98
same,glycan array binding signal (z-score),[20],-0.178
same,glycan array binding signal (z-score),[21],-0.307
same,glycan array binding signal (z-score),[22],0.032
same,glycan array binding signal (z-score),[23],-0.191
same,glycan array binding signal (z-score),[24],0.269
same,glycan array binding signal (z-score),[25],0.01
same,glycan array binding signal (z-score),[26],0.211
same,glycan array binding signal (z-score),[27],0.074
same,glycan array binding signal (z-score),[28],-0.11
same,glycan array binding signal (z-score),[29],-0.173
same,glycan array binding signal (z-score),[30],-0.175
same,glycan array binding signal (z-score),[31],-0.137
same,glycan array binding signal (z-score),[32],-0.027
same,glycan array binding signal (z-score),[33],0.598
same,glycan array binding signal (z-score),[34],0.703
same,glycan array binding signal (z-score),[35],-0.34
same,glycan array binding signal (z-score),[36],0.241
same,glycan array binding signal (z-score),[37],-0.282
same,glycan array binding signal (z-score),[38],0.901
